Assay results: PubChem BioAssay AID1671188 (National Center for Advancing Translational Sciences (NCATS), 2021)
About 250 (0.25%) of roughly 100,000 compounds were called active. This list was built around the results that the source calls inconclusive (neither active nor inactive); the mix of calls is not that of the screen. Calls come from the whole dose curve; as a rule, active = well fitted inhibition curve with a large enough effect; inconclusive = small, poorly fitted or top-dose-only effect; inactive = flat fitted curve, though single readings scatter. No potency is given beside an inconclusive call; the fits are too rough.

These compounds were tested against Alanine aminotransferase 2 (Homo sapiens) (UniProt Q8TD30) (assay: Primary qHTS assay for inhibitors of Glutamate pyruvate transaminase 2 (GPT2)). Conditions: Recombinant GPT2, coupled pyruvate oxidase/HRP Amplex Red fluorescence; activity change, negative = inhibition: at 57.7 µM (top of the series) unless noted; series mostly up to 57.7 µM.
UniProt Q8TD30, sequence (Q8TD30 whole entry, looked up): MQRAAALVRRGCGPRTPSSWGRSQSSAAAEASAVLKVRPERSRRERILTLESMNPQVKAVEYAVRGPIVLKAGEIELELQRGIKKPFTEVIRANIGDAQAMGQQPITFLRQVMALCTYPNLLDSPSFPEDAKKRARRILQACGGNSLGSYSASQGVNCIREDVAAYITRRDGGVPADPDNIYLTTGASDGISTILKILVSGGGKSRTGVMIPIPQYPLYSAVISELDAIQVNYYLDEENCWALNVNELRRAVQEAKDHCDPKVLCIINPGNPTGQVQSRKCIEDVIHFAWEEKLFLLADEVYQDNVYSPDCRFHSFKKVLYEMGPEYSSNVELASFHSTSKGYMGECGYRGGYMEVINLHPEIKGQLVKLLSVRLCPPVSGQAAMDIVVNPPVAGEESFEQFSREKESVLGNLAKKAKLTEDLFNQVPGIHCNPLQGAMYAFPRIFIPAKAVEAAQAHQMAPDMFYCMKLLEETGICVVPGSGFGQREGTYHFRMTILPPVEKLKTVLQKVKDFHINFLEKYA
Outline: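 Fluorescence of coupled pyruvate oxidase/HRP/Amplex Red system (50uM Amplex, 30 min, dark) reports pyruvate formed by GPT2. Enzyme reaction: 10ng/uL GPT2, 2mM L-alanine, 250uM a-KG, 30 min room temperature, pH 7.5; 50uM AOA control.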
% is set by controls: 0 for no effect and ±100 for the full control effect; potency is the fitted concentration of half-maximal effect; tags give direction and shape of the fitted curve.
Note: nearly all actives have a fitted effect of over 60% in size.

Row | Compound | Potency | activity change, negative = inhibition | outcome
1 | CCCNc1cc(N2CCC(CCC(=O)Nc3cc(C)ccc3C)CC2)ncn1 | inconclusive [inhibitor, single point] | – | –
2 | CC(CCO)CCC1C2(C)CCCC(C)(C)C2CC[C@@]1(C)O (stereo partly specified) | inconclusive [inhibitor, full curve, poor fit] | – | –
3 | Cn1cnc2cc(Nc3ccc(Cl)cc3F)cc(C(=O)NCc3cccnc3)c21 | inconclusive [inhibitor, partial curve] | – | –
4 | COCCNC(=O)c1cc(-c2cccc(C(F)(F)F)c2)nc2c1cnn2C | – | inactive: -1.84% | –
5 | COc1cccc(CN2C(=O)CCCCC2C(=O)NC2CCS(=O)(=O)C2)c1 (stereo unspecified) | – | – | inactive
6 | CCNC(=O)O[C@@H]1CC[C@]2(C)C(CC[C@@H](O)[C@H]2CC(=O)NCc2ccc(F)cc2)[C@]1(C)CO (stereo partly specified) | inconclusive [inhibitor, partial curve, poor fit] | – | –
7 | O=C1CN([S+](=O)([O-])C2CC2)CCN1[S+](=O)([O-])c1ccc(Cl)nc1 | inconclusive [inhibitor, full curve, poor fit] | – | –
8 | Cc1cnc(C2CCN(CC3CCCCC3)C2)n1Cc1ccccc1 (stereo unspecified) | inconclusive [inhibitor, single point] | – | –
9 | CCCN1C(=O)Cc2cc(C(=O)N3CCN(c4ccccc4Cl)CC3)ccc21 | inconclusive [inhibitor, full curve, poor fit] | – | –
10 | COCCN1CCCC2(CCN(c3nc4c(c(=O)[nH]c(=O)n4C)n3C)C2)C1=O (stereo unspecified) | inconclusive [inhibitor, single point] | – | –
11 | COc1ccc(CNC(=O)c2cnc3c(c2)N(C(=O)CCc2ccccc2)CCC3)cc1OC | inconclusive [inhibitor, single point] | – | –
12 | O=C(c1ccccc1)N1CCC(c2nn(-c3ccc(Cl)cc3)c(=O)[nH]2)CC1 | inconclusive [inhibitor, single point] | – | –
13 | O=C(c1ccco1)N1CC[C@@H]2[C@@H](CCC(=O)N2CCC2=CCCCC2)C1 | – | – | inactive
14 | CCCC(=O)N1Cc2ccccc2CC2(CCCN2Cc2cccnc2)C1 (stereo unspecified) | – | inactive: 1.13% | –
15 | COc1ccc([C@H](C)NC(=O)c2c(C)noc2-c2cccs2)cc1 | – | – | inactive
16 | O=C1CCN(S(=O)(=O)c2ccccc2)CCCN(C(=O)C2(c3ccccc3)CC2)CCN1 | inconclusive [inhibitor, single point] | – | –
17 | COC[C@H]1NC(=O)CC[C@H]1C(=O)N1CCN(Cc2ccccc2)CC1 | inconclusive [inhibitor, partial curve, poor fit] | – | –
18 | COc1cccc(C(O)c2nc(C(=O)NCc3ccco3)c(C)o2)c1 (stereo unspecified) | – | inactive: -3.61% [at 88.5 µM] | –
19 | CC1=C(C(=O)NCC2CCCCC(=O)N2)C2(CCCCC2)OC1=O (stereo unspecified) | – | – | inactive
20 | C[C@]1(CO)CCC[C@]2(C)C3=C(CCC12)COC3 (stereo partly specified) | inconclusive [inhibitor, single point] | – | –
21 | CCCNC(=O)c1cccc2c1CCN2C(=O)Nc1ccc(OC)cc1 | – | inactive: 2.43% | –

Row | Compound | Potency | activity change, negative = inhibition | outcome
22 | Cn1nccc1-c1cc2c(ccn2C)c(C(=O)NCc2cccnc2)n1 | inconclusive [inhibitor, single point] | – | –
23 | COc1cccc(CNC(=O)[C@@H]2C[C@@H](O)CN2C2CCN(C(=O)c3ccnn3C)CC2)c1 | inconclusive [inhibitor, full curve, poor fit] | – | –
24 | O=C(CSc1ccccn1)N[C@@H]1CCOC[C@H]1OCc1cscn1 | – | inactive: 3.42% [at 11.5 µM] | –
25 | N#Cc1ccc(C(=O)Nc2ccc([C@H]3OCC(=O)N(C4CCOCC4)[C@@H]3CO)cc2)cc1 | – | inactive: 3.78% | –
26 | Cc1ccc(CNC(=O)c2c(C)sc3ccn(C)c(=O)c23)cc1 | inconclusive [inhibitor, single point] | – | –
27 | O=C(NC1CCCC1)c1ccc2c(c1)N(C(=O)c1ccc(F)cc1)CC2 | inconclusive [inhibitor, partial curve, poor fit] | – | –
28 | CCOC(=O)N1CCC(N[C@@H]2CC[C@@H]2NC(=O)CCn2cncn2)CC1 | inconclusive [inhibitor, partial curve, poor fit] | – | –
29 | CCCN1CC2(CCN(C(=O)c3ccc(C)nc3)CC2)CC1C(=O)O (stereo unspecified) | – | inactive: -56.5% | –
30 | OCC1CCCCN1CCNC1CCN(c2ccc3c(c2)OCO3)CC1 (stereo unspecified) | inconclusive [inhibitor, full curve, poor fit] | – | –
31 | C=C1C2CCC3CC2(CC(O)C2(O)C1CC(OC1OC(CO)C(O)C(O)C1O)C2(C)C)CC3(C)O (stereo unspecified) | inconclusive [inhibitor, single point] | – | –
32 | Cc1nn2c(c1-c1ccccc1C(C)C)N(Cc1ccc(C(=O)O)cc1)CCC2 | – | – | inactive [at 88.5 µM]
33 | Cn1nc(C(=O)N2CCCN(c3cc(-c4ccc(Cl)cc4)[nH]n3)CC2)c2ccccc21 | inconclusive [inhibitor, partial curve, poor fit] | – | –
34 | CCC1(N2CCN(C(=O)c3cc(Cl)ccc3OC)CC2)CCN(C(=O)NC)C1 (stereo unspecified) | inconclusive [inhibitor, single point] | – | –
35 | COc1cccc(Nc2n[nH]c(C(O)c3cccc(C(F)(F)F)c3)n2)c1 (stereo unspecified) | inconclusive [inhibitor, partial curve, poor fit] | – | –
36 | COc1ccc(-c2cc(N3CCCC(NC(=O)c4cccc(N(C)C)c4)C3)n[nH]2)cc1 (stereo unspecified) | inconclusive [inhibitor, partial curve, poor fit] | – | –
37 | O=C(NCc1cccs1)C1CCN(C(=O)c2ncn3c2COC(c2ccccc2)C3)CC1 (stereo unspecified) | – | inactive: 2.6% | –
38 | CCOc1cccc(CN2CCC3(CCNCC3)C2)c1O | inconclusive [inhibitor, single point] | – | –
39 | C=C1C(=O)O[C@@H]2C[C@@]3(C)CCC[C@H](C)C3=C[C@H]12 | inconclusive [inhibitor, full curve, poor fit] | – | –
40 | O=C(c1cc(O)c(O)c(O)c1)c1ccc(O)c(O)c1O | inconclusive [inhibitor, single point] | – | –
41 | COCCNC(=O)[C@H]1C[C@H](Oc2ccccc2)CN1C(=O)c1ccc(F)cc1 | inconclusive [inhibitor, single point] | – | –
